The record followed here is patent publication US20110105380A1 (University of Pennsylvania, published 2011).

The target of the assay is SIRPα on human-derived THP-1 macrophages (human, UniProt P78324 31-504). The assay is described as follows: cell-based or functional assay.
UniProt P78324, sequence (P78324 31-504): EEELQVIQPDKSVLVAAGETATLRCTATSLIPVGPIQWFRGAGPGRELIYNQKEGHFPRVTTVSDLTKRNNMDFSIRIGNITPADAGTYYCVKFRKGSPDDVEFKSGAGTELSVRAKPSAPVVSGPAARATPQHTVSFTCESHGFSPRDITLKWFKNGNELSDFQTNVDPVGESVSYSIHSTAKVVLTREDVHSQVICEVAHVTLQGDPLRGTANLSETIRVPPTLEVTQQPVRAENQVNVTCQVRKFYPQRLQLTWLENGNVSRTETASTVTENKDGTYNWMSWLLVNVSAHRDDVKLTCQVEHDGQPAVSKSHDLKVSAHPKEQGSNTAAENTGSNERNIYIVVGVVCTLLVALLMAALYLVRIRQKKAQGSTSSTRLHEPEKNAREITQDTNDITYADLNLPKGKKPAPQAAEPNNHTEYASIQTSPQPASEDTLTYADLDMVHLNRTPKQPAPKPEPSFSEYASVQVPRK

B1: human CD47 on human red blood cells (ligand)
chain: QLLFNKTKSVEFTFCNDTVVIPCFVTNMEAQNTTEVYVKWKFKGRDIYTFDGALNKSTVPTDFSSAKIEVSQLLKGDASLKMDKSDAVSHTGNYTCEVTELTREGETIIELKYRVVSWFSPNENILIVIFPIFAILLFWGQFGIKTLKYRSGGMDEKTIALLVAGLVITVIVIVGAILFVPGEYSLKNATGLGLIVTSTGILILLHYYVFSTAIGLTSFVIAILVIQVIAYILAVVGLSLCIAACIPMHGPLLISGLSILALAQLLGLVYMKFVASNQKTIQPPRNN
Consider B1, for which the “localization of nonmuscle myosin IIA to the phagocytic synapse” value worked out at 3.8 fold decrease and the “phosphotyrosine at the phagocytic synapse (immunostaining)” value came to 3.2 fold lower.
